The supplement of paper PMC2702839
Structures can show the parent of a compound that is named as a salt. Some of the results follow.

These molecules were tested on Schistosoma mansoni schistosomula (assay: phenotypic hit in primary schistosomula screen (any phenotype vs DMSO control) (binary (1 = hit, 0 = no phenotype)); higher = active (phenotype induced)). Conditions: 1 µM; time (d): 7.

SMILES | phenotypic hit
CC(=O)O[C@@H]1C=C[C@]2(C)C(C[C@@H](OC(C)=O)[C@]3(C)C4=CC(=O)O[C@H](c5ccoc5)[C@@]4(C)CCC23)C1(C)C (some centres undefined) [deoxygedunol acetate] | inactive: 0
C[C@@H]1[C@H]2[C@H](O[C@@H]3O[C@H](CO)[C@@H](O)[C@H](O)[C@H]3O)OC=C(C(=O)O)[C@H]2C[C@@H]1O [loganic acid] | inactive: 0
O=C(O)c1cc(/N=N/c2ccc(S(=O)(=O)Nc3ccccn3)cc2)ccc1O [sulfasalazine] | inactive: 0
CC(N)CCCC(C)(C)O (centres undefined) [heptaminol hydrochloride] | inactive: 0
Cc1cc(O)cc(C)c1Cl [chloroxylenol] | inactive: 0
Oc1cccc(O)c1 [resorcinol] | inactive: 0
O=C(O)c1cc(=O)c2c(Cl)cc(Cl)cc2[nH]1 [5,7-Dichlorokynurenic acid] | inactive: 0
C=C1CCC(C2CC(=O)OC2=O)C(=O)CCC2C1CC2(C)C (centres undefined) | inactive: 0
NC(=O)CC[C@H](N)C(=O)O [L-Glutamine] | inactive: 0
COc1ccccc1/C=C/C(=O)O [coumarinic acid methyl ether] | inactive: 0
CC(C)OC(=O)C(C)(C)Oc1ccc(C(=O)c2ccc(Cl)cc2)cc1 [fenofibrate] | inactive: 0
NC(=O)c1cnccn1 [pyrazinamide] | inactive: 0
O=c1c(-c2ccccc2)coc2cc(O)cc(O)c12 [5,7-dihydroxyisoflavone] | inactive: 0
Cc1nc2ccccn2c(=O)c1CCN1CCC(C(=O)c2ccc(F)cc2)CC1 [Pirenperone] | inactive: 0
CCCn1c(=O)c2[nH]c(C3CCCC3)nc2n(CCC)c1=O [8-Cyclopentyl-1,3-dipropylxanthine] | inactive: 0
C=C(C)[C@@H]1CC[C@]2(CO)CC[C@]3(C)[C@H](CC[C@@H]4[C@@]5(C)CC[C@H](O)C(C)(C)[C@@H]5CC[C@]43C)[C@@H]12 [betulin] | inactive: 0
C/C=C/c1ccc(OC)cc1 [anethole] | inactive: 0
CCN1CCN(C(=O)NC(C(=O)NC2C(=O)N3C(C(=O)O)=C(CSc4nnnn4C)CSC23)c2ccc(O)cc2)C(=O)C1=O (centres undefined) [cefoperazole sodium] | inactive: 0
O[C@H]1[C@H](O)[C@@H](O)[C@H](O)[C@@H](O)[C@H]1O [inositol] | inactive: 0
COc1cc2c(cc1OC)[C@@H]1C(=O)c3c(O)cc4c(c3O[C@@H]1CO2)C=CC(C)(C)O4 [alpha-toxicarol] | inactive: 0
COc1ccc2c(c1)CC[C@@H]1[C@@H]2CC[C@]2(C)[C@@H](O)CC[C@@H]12 [estradiol methyl ether] | inactive: 0
CC(=O)O[C@H]1C(=O)[C@@]2(C)[C@H]([C@H](OC(=O)c3ccccc3)[C@]3(O)C[C@H](OC(=O)[C@H](O)[C@@H](NC(=O)c4ccccc4)c4ccccc4)C(C)=C1C3(C)C)[C@]1(OC(C)=O)CO[C@@H]1C[C@@H]2O [Taxol] | active: 1
C/C=C(/C(=C/C)c1ccc(O)cc1)c1ccc(O)cc1 [dienestrol] | inactive: 0

SMILES | phenotypic hit
COC(=O)c1c(C)cc(OC(=O)c2c(C)cc(O)c(C=O)c2O)c(C)c1O [atranorin] | inactive: 0
O=C(O)c1ccccc1OP(=O)(O)O [fosfosal] | inactive: 0
CC1=C(/C=C/C(C)=C/C=C/C(C)=C/CO)C(C)(C)CCC1 [retinol] | inactive: 0
CC(=O)OC1CC[C@@]2(C)C(CC[C@]3(C)C2CCC2C4CC(C)(C)CCC4(C(=O)O)CC[C@]23C)C1(C)C (some centres undefined) [oleananoic acid acetate] | inactive: 0
Nc1cc(N2CCCCC2)nc(N)[n+]1[O-] [Minoxidil] | inactive: 0
O=C(/C=C/c1ccccc1)c1ccc(O[C@@H]2O[C@H](CO)[C@@H](O)[C@H](O)[C@H]2O)cc1O [2',4'-dihydroxychalcone 4'-glucoside] | inactive: 0
C=C[C@H]1CN2CC[C@H]1C[C@H]2[C@H](O)c1ccnc2ccc(OC)cc12 [quinine sulfate] | inactive: 0
CC1(C)S[C@@H]2[C@H](NC(=O)[C@H](N)c3ccccc3)C(=O)N2[C@H]1C(=O)O [ampicillin sodium] | inactive: 0
CC1/C(=N/O)C[C@@H]2C[C@H]1C2(C)C (some centres undefined) [3-pinanone oxime] | inactive: 0
CC(=O)NCCCCCC(=O)O [acexamic acid] | inactive: 0
O=c1n(CCCN2CCN(c3cccc(Cl)c3)CC2)nc2ccccn12 [Trazodone hydrochloride] | inactive: 0
CC1(C)OC(=O)C=CC2(C)C1CC(O)C1(C)C2CCC2(C)C(c3ccoc3)OC(=O)C3OC321 (centres undefined) [obacunol] | inactive: 0
COc1ccc([C@@H](C)C(=O)c2ccc(O)cc2O)cc1 [angolensin (r)] | inactive: 0
O=c1oc2c(O)c(O)cc3c(=O)oc4c(O)c(O)cc1c4c23 [ellagic acid] | inactive: 0
NC(=O)NCCC[C@H](N)C(=O)O [citrulline] | inactive: 0
COc1ccc(-c2coc3cc(OC(C)=O)cc(OC(C)=O)c3c2=O)cc1 [biochanin a diacetate] | inactive: 0
CC(=O)CC(c1ccccc1)c1c(O)c2ccccc2oc1=O (centres undefined) [warfarin] | inactive: 0
O=C1NS(=O)(=O)c2ccccc21 [saccharin] | inactive: 0
NS(=O)(=O)c1cc2c(cc1Cl)NC(C1CC3C=CC1C3)NS2(=O)=O (centres undefined) [Cyclothiazide] | inactive: 0
CCN(CC)CC(=O)Nc1c(C)cccc1C [Lidocaine hydrochloride] | inactive: 0
COC(=O)C[C@H]1C(C)(C)[C@H](O)[C@@H]2CC3=C4CC(O)O[C@@H](c5ccoc5)[C@@]4(C)CCC3[C@]1(C)C2=O (stereo partly drawn) [3,16-dideoxymexicanolide-3alpha-diol] | inactive: 0
COC(=O)C1=CO[C@@H](C)[C@H]2CN3CCc4c([nH]c5ccccc45)[C@@H]3C[C@H]12 [ajmalicine] | inactive: 0
c1ccc2c(CC3=NCCN3)cccc2c1 [naphazoline hydrochloride] | inactive: 0

SMILES | phenotypic hit
CC(=O)OCC(=O)[C@@]12OC(C)(C)O[C@@H]1C[C@H]1[C@@H]3C[C@H](F)C4=CC(=O)C=C[C@]4(C)[C@@]3(F)[C@@H](O)C[C@@]12C [fluocinonide] | inactive: 0
C=CC1=C(C(=O)O)N2C(=O)[C@@H](NC(=O)/C(=N\O)c3csc(N)n3)[C@H]2SC1 [cefdinir] | inactive: 0
OCc1ccccc1O[C@@H]1O[C@H](CO)[C@@H](O)[C@H](O)[C@H]1O [salicin] | inactive: 0
C=C1CC[C@@H]2[C@](C)(CO)[C@H](O)CC[C@@]2(C)[C@@H]1C/C=C1/C(=O)OC[C@H]1O [andrographolide] | inactive: 0
CC(=O)NS(=O)(=O)c1ccc(N)cc1 [sulfacetamide] | inactive: 0
CC(=O)O[C@H]1C[C@@]2(C)[C@H](c3ccoc3)OC(=O)[C@H]3O[C@]32[C@@]2(C)C1[C@]1(C)C(C[C@H]2OC(C)=O)C(C)(C)[C@H](OC(C)=O)C[C@@H]1OC(C)=O (stereo partly drawn) [11alpha-acetoxykhivorin] | inactive: 0
O=C(O[C@@H]1Cc2c(O)cc(O)cc2O[C@@H]1c1cc(O)c(=O)c2c(O)c(O)cc([C@H]3Oc4cc(O)cc(O)c4C[C@H]3OC(=O)c3cc(O)c(O)c(O)c3)c2c1)c1cc(O)c(O)c(O)c1 [theaflavin digallate] | inactive: 0
CS(=O)(=O)OCCCCOS(C)(=O)=O [busulfan] | inactive: 0
Cc1c(NC(=O)c2cccnc2)c(=O)n(-c2ccccc2)n1C [nifenazone] | inactive: 0
O=C(/C=C/c1ccc(O)cc1)c1ccc(O)cc1O [isoliquiritigenin] | inactive: 0
N[C@@H](Cc1c[nH]c2ccccc12)C(=O)O [tryptophan] | inactive: 0
NS(=O)(=O)c1cc2c(cc1C(F)(F)F)NCNS2(=O)=O [hydroflumethiazide] | inactive: 0
COc1cc(OC)c2c(c1Cl)O[C@@]1(C(=O)CC(=O)C[C@H]1C)C2=O [griseofulvic acid] | inactive: 0
CC(=O)N[C@H]1[C@H]([C@H](O)[C@H](O)CO)OC(O)(C(=O)O)C[C@@H]1O (mixture of isomers) [n-acetylneuramic acid] | inactive: 0
CN1C(=O)CC[C@H]1c1cccnc1 [cotinine] | inactive: 0
CC[C@@H]1C(=O)OC[C@@H]1Cc1cncn1C [(+)-Pilocarpine hydrochloride] | inactive: 0
Cc1cc(O)c(C=O)c(O)c1C(=O)O [haematommic acid] | inactive: 0
C[C@H](CCC(=O)O)[C@H]1CC[C@H]2[C@@H]3[C@@H](O)C[C@@H]4C[C@H](O)CC[C@]4(C)[C@H]3CC[C@]12C [ursodiol] | inactive: 0
Nc1c2ccccc2nc2ccccc12 [aminacrine] | inactive: 0
CN1CCC(=C2c3ccccc3Sc3ccccc32)CC1 [pimethixene maleate] | inactive: 0
COC1=CC(=O)C(C(=O)c2ccccc2)=CC1=O [2-benzoyl-5-methoxybenzoquinone] | inactive: 0
N[C@@H](Cc1cc(I)c(Oc2ccc(O)c(I)c2)c(I)c1)C(=O)O [liothyronine sodium] | inactive: 0
CC(C)[C@@H](C)/C=C/[C@@H](C)[C@H]1CC[C@H]2C3=CCC4CC(=O)CC[C@]4(C)[C@H]3CC[C@]12C (some centres undefined) [ergosta-7,22-dien-3-one] | inactive: 0
